Molecular target: T1, Histone H4 (Xenopus laevis), in the nucleosome (Xenopus laevis, UniProt P62799)
T1 construct: Histone H4, Xenopus laevis, recombinant (Luger et al., 1997); Stood in the assay as a subunit of the nucleosome m2
Assay: cryo-EM structure; 0.625 µM 0/60 nucleosomes mixed with 1.25 µM SNF2h in 0.5 mM ADP-Mg, 0.5 mM BeFx, 0.5 mM MgCl2, 140 mM KCl, 3 mM Tris pH 7.5, 1.25 mM HEPES pH 7.5, 1.5% glycerol; room temperature 10 min; no cross-linking; K2 Summit camera
Settings: both partners purified

B1: SNF2h (human ISWI remodeler), full-length (enzyme)
chain: MSSAAEPPPPPPPESAPSKPAASIASGGSNSSNKGGPEGVAAQAVASAASAGPADAEMEEIFDDASPGKQKEIQEPDPTYEEKMQTDRANRFEYLLKQTELFAHFIQPAAQKTPTSPLKMKPGRPRIKKDEKQNLLSVGDYRHRRTEQEEDEELLTESSKATNVCTRFEDSPSYVKWGKLRDYQVRGLNWLISLYENGINGILADEMGLGKTLQTISLLGYMKHYRNIPGPHMVLVPKSTLHNWMSEFKRWVPTLRSVCLIGDKEQRAAFVRDVLLPGEWDVCVTSYEMLIKEKSVFKKFNWRYLVIDEAHRIKNEKSKLSEIVREFKTTNRLLLTGTPLQNNLHELWSLLNFLLPDVFNSADDFDSWFDTNNCLGDQKLVERLHMVLRPFLLRRIKADVEKSLPPKKEVKIYVGLSKMQREWYTRILMKDIDILNSAGKMDKMRLLNILMQLRKCCNHPYLFDGAEPGPPYTTDMHLVTNSGKMVVLDKLLPKLKEQGSRVLIFSQMTRVLDILEDYCMWRNYEYCRLDGQTPHDERQDSINAYNEPNSTKFVFMLSTRAGGLGINLATADVVILYDSDWNPQVDLQAMDRAHRIGQTKTVRVFRFITDNTVEERIVERAEMKLRLDSIVIQQGRLVDQNLNKIGKDEMLQMIRHGATHVFASKESEITDEDIDGILERGAKKTAEMNEKLSKMGESSLRNFTMDTESSVYNFEGEDYREKQKIAFTEWIEPPKRERKANYAVDAYFREALRVSEPKAPKAPRPPKQPNVQDFQFFPPRLFELLEKEILFYRKTIGYKVPRNPELPNAAQAQKEEQLKIDEAESLNDEELEEKEKLLTQGFTNWNKRDFNQFIKANEKWGRDDIENIAREVEGKTPEEVIEYSAVFWERCNELQDIEKIMAQIERGEARIQRRISIKKALDTKIGRYKAPFHQLRISYGTNKGKNYTEEEDRFLICMLHKLGFDKENVYDELRQCIRNSPQFRFDWFLKSRTAMELQRRCNTLITLIERENMELEEKEKAEKKKRGPKPSTQKRKMDGAPDGRGRKKKLKL
notes: SNF2h, human ISWI-family chromatin remodeling ATPase, full-length form; Only the ATPase domain is resolved in the 3.4 Å map; source: Escherichia coli BL21(DE3) Rosetta, purified as previously described (Leonard and Narlikar, 2015)
- binding result: binds
